# Results from the supplement of paper PMC10338343.
# ± gives the standard deviation. Over roughly 5,500 sequences, “pre-steady-state target cleavage rate” has its median near 0.1; the highest 2% begin near 0.64. The entries are a selection whose mix differs from that of the whole data set.
# System: MIWI (PIWIL1) piRISC loaded with piRNA #2 (30 nt)
# Test: pre-steady-state target cleavage rate (min^-1); MIWI and MILI are mouse PIWI proteins and EfPiwi is from a freshwater sponge; tags in brackets are library labels; higher = faster piRNA-guided slicing of the target
# Conditions: guide: piRNA #2 5'p-UUAGGUAACCCAGUAGAUCCAGAGGAAUUC; auxiliary factor: 500 nM mouse GTSF1
# Summary of the method: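 Cleave-'n-Seq reactions paired 0.1 nM transcribed, DNA-blocked target RNA library with 1 nM active affinity-purified piRISC holding one synthetic guide, plus or minus 500 nM GTSF1 partner protein, in HEPES–potassium acetate buffer at 33 °C for 0–8 or 0–960 min. After sequencing of uncleaved targets and normalisation to depth and weakly complementary targets, the pre-steady-state cleavage rate was taken from a burst-and-steady-state fit. Three trials were pooled, and k3 was capped at 0.0001 min^-1.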
row,Sequence,pre-steady-state target cleavage rate
1,CUUUUCCUCUGGAACUACUGGGUUACGUAA,0.48 ± 0.036
2,CUUAAGGACUGGAUCUACAGGGUUACCUAA,0.117 ± 0.028
3,CUUAAGGUAUGGAUCUACUGGGUUACCUAA,0.323 ± 0.035
4,CUUAUCCUCUGGAUCUCCUGGGUUACCUAA,0.263 ± 0.048
5,CUUAAGGACUGGUUCUAGUGGGUUACCUAA,0.00702 ± 0.0069
6,CUUAAGGUCGGAUCUACUGGGUUACCUAA,0.043 ± 0.025
7,GUAUUCCUCUGGAUCUACUGGGUAACCUAA,0.053 ± 0.024
8,GUAUUCCUCUGGAUCUACUGGGUUUCCUAA,0.161 ± 0.041
9,CUUAAGCUCUGGAUCUACUGGGUUACCUUA,0.0905 ± 0.018
10,CUUAAGGUCUGGACUACUGGGUUACCUAA,0.0214 ± 0.012
11,CUUAACCUCUGGUUCUACUCGGUUACCUAA,0.173 ± 0.018
12,CUAUUCCUCUGGAUCUACUAGGUUACCUAA,0.238 ± 0.046
13,GAAUUCGUCUGGAUCUACUGGGUAACCUAA,0.142 ± 0.034
14,CUUUUCCUCACGAUCUACUGGGUUACCUAA,0.635 ± 0.051
15,CUUAAGGUCUGGAUCUAGUGGGUAACCUAA,0.0188 ± 0.0089
16,CUUAAGGAGAGGUUCUACUGGGUUUCCUAA,0.00421 ± 0.0042
17,CUUAAGGAGAGGAUCUACUGGGUUACCUUA,0.00956 ± 0.0048
18,CUAUUCCUCAGGAUCUAGUGGGUUACCUAA,0.194 ± 0.032
19,GUAUUCCACUGGAUCUACUGGGUUACCUAA,0.0571 ± 0.028
20,CUUAUCCUCUGCAUCUACUGGGUUACGUAA,0.181 ± 0.029
21,GAAUUCCUCUGGAUCUACUGGGUUACCGAA,0.361 ± 0.091
22,CUUUACCUCUGGAUCUACUGCGUUACCUAA,0.452 ± 0.045
23,GAAUUCCUGUGGAUCUACUGGGUUAGCUAA,0.272 ± 0.043

row,Sequence,pre-steady-state target cleavage rate
1,CUUAUCCUCUGGAUGUACUGGGUUACCUUA,0.355 ± 0.046
2,CUUUUCCUCUGGAUCUACUGGGUUACCAAA,0.477 ± 0.052
3,CUUAAGGUCUGGAUCUACUGGGUCACCUAA,0.122 ± 0.017
4,CUUAAGGUCUGCAUCUACAGGGUUACCUAA,0.0962 ± 0.013
5,GAAAUCCUCUGGAUCUACUGCGUUACCUAA,0.45 ± 0.059
6,CAAUUCCCCUGGAUCUACUGGGUUACCUAA,0.462 ± 0.03
7,CUUAAGGAGUGCAUCUACAGGGUUACCUAA,0.00328 ± 0.003
8,CUUAACCUGUGGAUCUAGUGGGUUACCUAA,0.156 ± 0.014
9,CAAUUCCUCUGGAUCUACAGGGAUACCUAA,0.201 ± 0.029
10,CAAUUCCCUCUGGAUCUACUGGGUUACCUAA,0.435 ± 0.054
11,CAAUUCCUCUGGAUCUACUGGGUUACCCAA,0.46 ± 0.15
12,CUUUUCGAGUGGAUCUACUGGGUUACCUAA,0.317 ± 0.038
13,CUUAACCUCUGGAUCAACUGGCUUACCUAA,0.0451 ± 0.0095
14,CUAUUCCUCUGGAUCUACUGGGUAACCUUA,0.178 ± 0.044
15,CUUUACCUCUGGAUCUACUGGGUUACCAAA,0.312 ± 0.041
16,CUAUUCCACUGGAUCUACUCGGUUACCUAA,0.0817 ± 0.018
17,GAAUUCCUCUUGAUCUACUGGGUUACCUAA,0.74 ± 0.037
18,CUUAAGGACUGGAUCUACUGGGUUACCUCAA,0.0868 ± 0.041
19,CUUAACCUCUGGAUCUACUGGCUAACCUAA,0.0121 ± 0.0044
20,CUUAAGCUGUGGAUCUUCUGGGUUACCUAA,0.0804 ± 0.03
21,CUUAAGCACUGGAUCUACUGGGUUAGCUAA,0.0543 ± 0.008
22,CUUAAGGAGACCUACUACUGCGUUACCUAA,0.0036 ± 0.0015
23,GAAUUGCUCUGGAUCUACUGGGUUACCUUA,0.0635 ± 0.026

row,Sequence,pre-steady-state target cleavage rate
1,CUAUUGCUCUGGAUCUACUGGGUUACCUUA,0.124 ± 0.028
2,CUUAACCUCUGGAUCUACUGGGUUACCUGA,0.0864 ± 0.026
3,CUUAACGAGUGGAUCUACUGGGUUACCUAA,0.22 ± 0.03
4,CUUAAGGAGACCUAGUACUGGGUUACGAUA [g5:g15:cont:t1A],< 0.0001
5,GAAUUGCUCUGGAUCUACUGGGUUACCAAA,0.141 ± 0.037
6,CUUAAGGUCUGGAUCUACUGGGUUUCCUAA,0.176 ± 0.024
7,CUUAAGGUCUGGAUCUACUGGGCUUACCUAA,0.013 ± 0.011
8,CUUAAGGAGACCAUCUACUGCGAUACCUAA,0.0042 ± 0.0015
9,GAAUUCGUCUGGAUCUACAGGGUUACCUAA,0.179 ± 0.03
10,CUUAAGGUCUGGAUCUACUGGGUUACCAAA,0.223 ± 0.034
11,GAAUUCCUCUGGAUCUUCAGGGUUACCUAA,0.11 ± 0.016
12,CUUUUCAUCUGGAUCUACUGGGUUACCUAA,0.471 ± 0.036
13,CAAUUCCUGUGGAUGUACUGGGUUACCUAA,0.512 ± 0.052
14,CUUUUCCUCUGGAUCUACUGGGUUACCGUAA,0.35 ± 0.05
15,CUUUUACCUCUGGAUCUACUGGGUUACCUAA,0.206 ± 0.032
16,GAAUUCCACUGGAUCUACUGGGUUACCUAA,0.56 ± 0.05
17,CAAUUCCUCUGGAUCAACUGGCUUACCUAA,0.0707 ± 0.018
18,CUUAAGCUCUGGAUCUACUGGGUAUCCUAA,0.0379 ± 0.013
19,CUUUUCCUCUGGAUCCACUGGGUUACCUAA,0.23 ± 0.031
20,CUUUUCCCCUGGAUCUACUGGGUUACCUAA,0.47 ± 0.03
21,CUUAUCCUCUCGAUCUACUCGGUUACCUAA,0.16 ± 0.011
22,GAUUUCCUCUGGAUCUACUGGGUUAGCUAA,0.439 ± 0.058
23,GAAUUCCUCUGGAUCUACAGGCUUACCUAA,0.0414 ± 0.009

row,Sequence,pre-steady-state target cleavage rate
1,CAAUUCCUCUGGAUCUACUGGGUUAACUAA,0.386 ± 0.098
2,CUUAUCCACAGGAUCUACUGGGUUACCUAA,0.299 ± 0.047
3,CUUUUCCUCUGGAUCUACUGGGUUGACCUAA,0.381 ± 0.035
4,CUUAAGCUCUGGAUCUACUGGGUUAUCCUAA,0.0842 ± 0.014
5,GAUUUCGUCUGGAUCUACUGGGUUACCUAA,0.369 ± 0.058
6,CUAUUCCUGUGGAUCUACUGGGAUACCUAA,0.251 ± 0.024
7,CUUUUCCUGUGGAUCUUCUGGGUUACCUAA,0.276 ± 0.051
8,CAAUUCCUCUGGAUCUACUCCGUUACCUAA,0.0223 ± 0.0077
9,CUUAUCGUCUGGAACUACUGGGUUACCUAA,0.417 ± 0.046
10,CUUUUCCACUGGAUCUACUGGGUUACCUUA,0.467 ± 0.052
11,CAAUUCCUCUCGAUCUACUGGGAUACCUAA,0.623 ± 0.043
12,CUUAAGGUCUGGAUCAACUGGGAUACCUAA,0.06 ± 0.018
13,CUAUUCCUCUGGAUGAACUGGGUUACCUAA,0.306 ± 0.059
14,CUUAAGCUCUGGAUCUACUGGGUCACCUAA,0.0537 ± 0.014
15,GAAUUCCUGUGGAUCUACUGGCUUACCUAA,0.0708 ± 0.021
16,GCAUUCCUCUGGAUCUACUGGGUUACCUAA,0.124 ± 0.033
17,CUUAAGGAGACCUUCUACUGGGUUACAUAA,0.0107 ± 0.0023
18,CUUUUGGACUGGAUCUACUGGGUUACCUAA,0.216 ± 0.058
19,CUUAAGGAGUGGAUCCUACUGGGUUACCUAA,0.00512 ± 0.0024
20,CUUAAGGACUGGAUCUAGUGGGUUACGUAA,0.149 ± 0.033
21,CUUAACCUCUGGAACUACUGGGUAACCUAA,0.0846 ± 0.0098
22,CUAUUCCUCUGAGAUCUACUGGGUUACCUAA,0.471 ± 0.042
23,CAAUUCCUCUGGAACUACUGGGAUACCUAA,0.174 ± 0.034
